Source: patent US8551981B2, “Furo[3,2-d]pyrimidine compounds” (AbbVie Inc., priority 2010, dated 2013)
Like-named read-outs stand apart in the source and are kept apart here.

Target: Syk catalytic domain (aa 356-635 with a C-terminal His-tag) (Homo sapiens, UniProt P43405)
Assay: In vitro Syk kinase activity by trFRET (Syk catalytic domain)
Conditions: trFRET, 0.001 mM ATP
[1] = Syk IC50, Syk catalytic domain (aa 356-635)
[2] = Syk catalytic domain (aa 356-635), read-out: Syk IC50

Compound	IC50 [1] [µM]	IC50 [2] [µM]
CC1(C)C(=O)Nc2cc(Nc3nc(N4CCC(CNCC(F)F)CC4)c4occc4n3)ccc21 [B.5.60]	< 0.1	–
CC1(C)C(=O)Nc2cc(Nc3nc(N[C@@H]4[C@H](C(N)=O)[C@H]5C=C[C@@H]4C5)c4occc4n3)ccc21 [B.5.61]	< 0.1	–
CC1(C)Oc2ccc(Nc3nc(Nc4ccc5c(c4)NC(=O)C(C)(C)O5)c4occc4n3)cc2NC1=O [B.5.62]	–	0.1 to 1
CC1(CNc2nc(Nc3ccc4c(c3)NC(=O)C(C)(C)O4)nc3ccoc23)COC1 [B.5.64]	–	0.1 to 1
CC1(C)Oc2ccc(Nc3nc(N4CCC(CNCCS(C)(=O)=O)CC4)c4occc4n3)cc2NC1=O [B.5.65]	–	< 0.1
CC1(C)Oc2ccc(Nc3nc(NCCC(N)=O)c4occc4n3)cc2NC1=O [B.5.66]	–	0.1 to 1
CC1(C)Oc2ccc(Nc3nc(NCC(F)F)c4occc4n3)cc2NC1=O [B.5.67]	–	0.1 to 1
CC1(C)C(=O)Nc2cc(Nc3nc(N4CCC(CNCCS(C)(=O)=O)CC4)c4occc4n3)ccc21 [B.5.68]	< 0.1	–
O=C1CCc2ccc(Nc3nc(NCC(F)F)c4occc4n3)cc2N1 [B.5.69]	0.1 to 1	–
CC(=O)N(C)c1ccc(Nc2nc(N3CCc4ccccc4C3)c3occc3n2)cc1 [B.5.70]	0.1 to 1	–
CC1(C)C(=O)Nc2cc(Nc3nc(C#CC4CC4)c4occc4n3)ccc21 [B.5.71]	0.1 to 1	–
CC(C)(C)Nc1nc(Nc2ccc3c(c2)NC(=O)C(C)(C)O3)nc2ccoc12 [B.5.72]	–	0.1 to 1
CCN(CC)c1nc(Nc2ccc3c(c2)NC(=O)C(C)(C)O3)nc2ccoc12 [B.5.73]	–	0.1 to 1
COCCCNS(=O)(=O)c1ccc(Nc2nc(N3CCC(CNCC(F)F)CC3)c3occc3n2)cc1 [B.5.74]	0.1 to 1	–
Cn1ncc2cc(Nc3nc(N4CCC(CNCC(F)F)CC4)c4occc4n3)ccc21 [B.5.75]	0.1 to 1	–
CC1(C)Oc2ccc(Nc3nc(N4CCC(CNCCF)CC4)c4occc4n3)cc2NC1=O [B.5.76]	–	< 0.1
CC1(C)C(=O)Nc2cc(Nc3nc(N4CCC(CNCCF)CC4)c4occc4n3)ccc21 [B.5.77]	< 0.1	–
CC1(C)Oc2ccc(Nc3nc(N4CCCC(C(N)=O)C4)c4occc4n3)cc2NC1=O (stereo not drawn) [B.5.78]	–	0.1 to 1
O=C1CCc2ccc(Nc3nc(N4CCC(CNCC(F)F)CC4)c4occc4n3)cc2N1 [B.5.79]	< 0.1	–
CC(C)CNc1nc(Nc2ccc3c(c2)NC(=O)C3(C)C)nc2ccoc12 [B.5.80]	0.1 to 1	–
CCCNc1nc(Nc2ccc3c(c2)NC(=O)C3(C)C)nc2ccoc12 [B.5.81]	< 0.1	–
O=c1ccc2ccc(Nc3nc(N4CCC(CNCC(F)F)CC4)c4occc4n3)cc2[nH]1 [B.5.82]	< 0.1	–
Cc1cc(=O)[nH]c2cc(Nc3nc(N4CCC(CNCC(F)F)CC4)c4occc4n3)ccc12 [B.5.83]	< 0.1	–
O=C1COc2ccc(Nc3nc(N4CCC(CNCC(F)F)CC4)c4occc4n3)cc2N1 [B.5.84]	0.1 to 1	–
FC(F)CNCC1CCN(c2nc(Nc3ccc(N4CCOCC4)c(Cl)c3)nc3ccoc23)CC1 [B.5.85]	< 0.1	–
CC1(C)Cc2ccc(Nc3nc(N4CCC(CNCC(F)F)CC4)c4occc4n3)cc2NC1=O [B.5.86]	< 0.1	–

Compound	IC50 [1] [µM]	IC50 [2] [µM]
Cc1cc2ccc(Nc3nc(N4CCC(CNCC(F)F)CC4)c4occc4n3)cc2[nH]c1=O [B.5.87]	0.1 to 1	–
O=C1Nc2cc(Nc3nc(N4CCC(CNCC(F)F)CC4)c4occc4n3)ccc2OC1(F)F [B.5.88]	0.1 to 1	–
CC(NCC(F)F)C1CCN(c2nc(Nc3ccc4c(c3)NC(=O)C(C)(C)O4)nc3ccoc23)CC1 (stereo not drawn) [B.5.89]	–	0.1 to 1
CC(NCC(F)F)C1CCN(c2nc(Nc3ccc4c(c3)NC(=O)C4(C)C)nc3ccoc23)CC1 (stereo not drawn) [B.5.90]	< 0.1	–
Fc1cc(Nc2nc(N3CCC(CNCC(F)F)CC3)c3occc3n2)ccc1N1CCOCC1 [B.5.91]	0.1 to 1	–
CC1Cc2ccc(Nc3nc(N4CCC(CNCC(F)F)CC4)c4occc4n3)cc2NC1=O (stereo not drawn) [B.5.92]	< 0.1	–
CC1(CNCC(F)F)CCN(c2nc(Nc3ccc4c(c3)NC(=O)C(C)(C)O4)nc3ccoc23)CC1 [B.5.93]	–	0.1 to 1
CC1(C)Oc2ccc(Nc3nc(N4CCC(C(N)=O)C4)c4occc4n3)cc2NC1=O (stereo not drawn) [B.5.94]	–	0.1 to 1
CC1(C)Sc2ccc(Nc3nc(N4CCC(CNCC(F)F)CC4)c4occc4n3)cc2NC1=O [B.5.95]	0.1 to 1	–
CC1CC1Nc1nc(Nc2ccc3c(c2)NC(=O)C3(C)C)nc2ccoc12 (stereo not drawn) [B.5.96]	< 0.1	–
CC1(C)Oc2ccc(Nc3nc(N4CCC(C#N)(CCO)CC4)c4occc4n3)cc2NC1=O [B.5.97]	–	0.1 to 1
CC1(C)Oc2ccc(Nc3nc(N4CCC(CNCCC(F)(F)F)CC4)c4occc4n3)cc2NC1=O [B.5.98]	–	0.1 to 1
CC1(C)C(=O)Nc2cc(Nc3nc(N4CCC(CNCC(F)F)C4)c4occc4n3)ccc21 (stereo not drawn) [B.5.99 A]	0.1 to 1	–
Cc1cc2ccc(Nc3nc(NC4CC4)c4occc4n3)cc2[nH]c1=O [B.5.99]	< 0.1	–
Cc1n[nH]c2cc(Nc3nc(NCC(F)F)c4occc4n3)ccc12 [B.5.100]	0.1 to 1	–
CC1(C)Oc2ccc(Nc3nc(N4CCC(CO)C4)c4occc4n3)cc2NC1=O (stereo not drawn) [B.5.101]	–	0.1 to 1
CC1(C)C(=O)Nc2cc(Nc3nc(N4CCC(CNCCC(F)(F)F)CC4)c4occc4n3)ccc21 [B.5.102]	< 0.1	–
O=C1COc2ccc(Nc3nc(NC4CCC4)c4occc4n3)cc2N1 [B.5.103]	0.1 to 1	–
O=C1CCCc2ccc(Nc3nc(OC4CCC4)c4occc4n3)cc2N1 [B.5.104]	0.1 to 1	–
O=C1CCc2ccc(Nc3nc(OC4CCC4)c4occc4n3)cc2N1 [B.5.105]	0.1 to 1	–
Cc1n[nH]c2cc(Nc3nc(NC4CCC4)c4occc4n3)ccc12 [B.5.106]	< 0.1	–
O=C1CCc2ccc(Nc3nc(NC4CCC4)c4occc4n3)cc2N1 [B.5.107]	< 0.1	–
CC1(C)C(=O)Nc2cc(Nc3nc(NC4CCC4)c4occc4n3)ccc21 [B.5.108]	< 0.1	–
CC1(C)Cc2ccc(Nc3nc(NC4CCC4)c4occc4n3)cc2NC1=O [B.5.109]	< 0.1	–
CC1Cc2ccc(Nc3nc(NC4CCC4)c4occc4n3)cc2NC1=O (stereo not drawn) [B.5.110]	< 0.1	–
CC(C)CNc1nc(Nc2ccc3c(c2)NC(=O)CC3)nc2ccoc12 [B.5.111]	0.1 to 1	–

Compound	IC50 [1] [µM]	IC50 [2] [µM]
CCCNc1nc(Nc2ccc3c(C)n[nH]c3c2)nc2ccoc12 [B.5.112]	0.1 to 1	–
CCCNc1nc(Nc2ccc3c(c2)NC(=O)CC3)nc2ccoc12 [B.5.113]	0.1 to 1	–
CCCNc1nc(Nc2ccc3c(c2)NC(=O)C(C)(C)C3)nc2ccoc12 [B.5.114]	0.1 to 1	–
CCCNc1nc(Nc2ccc3c(c2)NC(=O)CCC3)nc2ccoc12 [B.5.115]	0.1 to 1	–
CCCNc1nc(Nc2ccc(C(C)(C)C#N)cc2)nc2ccoc12 [B.5.116]	0.1 to 1	–
CC(C)CNc1nc(Nc2ccc3c(c2)NC(=O)C(C)(C)C3)nc2ccoc12 [B.5.117]	0.1 to 1	–
CC(C)CNc1nc(Nc2ccc3c(c2)NC(=O)CCC3)nc2ccoc12 [B.5.118]	0.1 to 1	–
CC(C)CNc1nc(Nc2ccc(C(C)(C)C#N)cc2)nc2ccoc12 [B.5.119]	0.1 to 1	–
CS(=O)(=O)N1CCN(c2ccc(Nc3nc(NC4CC4)c4occc4n3)cc2)CC1 [B.5.120]	< 0.1	–
c1cn(-c2ccc(Nc3nc(NC4CC4)c4occc4n3)cc2)cn1 [B.5.121]	0.1 to 1	–
CC1(CO)CCN(c2nc(Nc3ccc4c(c3)NC(=O)C(C)(C)O4)nc3ccoc23)CC1 [B.5.122]	–	0.1 to 1
CC1(O)CCN(c2nc(Nc3ccc4c(c3)NC(=O)C(C)(C)O4)nc3ccoc23)CC1 [B.5.123]	–	0.1 to 1
CC1(C)Oc2ccc(Nc3nc(N4CCC(CCO)CC4)c4occc4n3)cc2NC1=O [B.5.124]	–	0.1 to 1
CC1(C)Oc2ccc(Nc3nc(N4CCC(O)(CO)CC4)c4occc4n3)cc2NC1=O [B.5.125]	–	0.1 to 1
CC1(C)Oc2ccc(Nc3nc(N4CCCC(O)C4)c4occc4n3)cc2NC1=O (stereo not drawn) [B.5.126]	–	0.1 to 1
c1cc2nc(Nc3ccc4cnoc4c3)nc(NC3CC3)c2o1 [B.5.127]	0.1 to 1	–
c1cc2nc(Nc3ccc4c(NC5CCOCC5)n[nH]c4c3)nc(NC3CC3)c2o1 [B.5.128]	< 0.1	–
CC1(C)Oc2ccc(Nc3nc(N[C@@H]4[C@H](C(N)=O)[C@H]5C=C[C@@H]4C5)c4occc4n3)cc2NC1=O [B.5.129]	–	< 0.1
N#Cc1ccc(Nc2nc(NC3CC3)c3occc3n2)cc1 [B.5.130]	0.1 to 1	–
COc1ccc(Nc2nc(NC3CC3)c3occc3n2)cc1 [B.5.131]	0.1 to 1	–
CC1(C)Oc2ccc(Nc3nc(N4CCC(O)C4)c4occc4n3)cc2NC1=O (stereo not drawn) [B.5.132]	–	1 to 10
CC1(C)Oc2ccc(Nc3nc(N4CCC(O)CC4)c4occc4n3)cc2NC1=O [B.5.133]	–	< 0.1
N#CCc1ccc(Nc2nc(NC3CC3)c3occc3n2)cc1 [B.5.134]	0.1 to 1	–
O=S(=O)(Nc1ccccn1)c1ccc(Nc2nc(NC3CC3)c3occc3n2)cc1 [B.5.135]	0.1 to 1	–
c1cc(-c2ccc(Nc3nc(NC4CC4)c4occc4n3)cc2)ccn1 [B.5.136]	0.1 to 1	–
NCC1CCN(c2nc(Nc3ccc(S(N)(=O)=O)cc3)nc3ccoc23)CC1 [C.1, 4-(4-(4-(Aminomethyl)piperidin-1-yl)furo[3,2-d]pyrimidin-2-ylamino)benzenesulfonamide]	< 0.1	–
